Test results from the supplement of paper PMC3334620.
Over roughly 33,000 sequences, “E-score (-0.5 to 0.5)” has its median near -0.016; the highest 2% begin near 0.31. The list shows a part of the results.

Biological target: Cst6 (UniProt P40535)
Test: PBM E-score (8-mer binding enrichment) (E-score (-0.5 to 0.5)); higher = stronger / more preferred TF binding; most listed sequences are background and not binding sites
Settings: protein concentration: 200 nM; construct: GST-DNA-binding domain
Summary of the method: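 Each ungapped eight-base word and its reverse complement, pooled, received an E-score from the Universal PBM Analysis Suite. Underlying scans, normalised with masliner, recorded fluorescent anti-GST bound to GST-tagged yeast transcription factors. These were applied at about 100-200 nM to universal all-10-mer Agilent arrays double-stranded by primer extension.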

Sequence | PBM E-score
CCAACAAC | -0.0167
GATCTTGA | 0.0199
GGACGAAA | 0.0732
TAAAAGCA | 0.0288
AGAATAAT | 0.159
TCTTGGAA | 0.0581
AGGCCACC | -0.191
AGGCTCAC | -0.262
CTTCGGAA | 0.023
GACCCCCC | -0.384
ATACTTCG | 0.0898
AGCATTTC | 0.0706
CACTTAAA | 0.0639
AATCAATG | 0.272
GGTGCTAA | -0.0433
GTGTGAGA | 0.0223
AATCTACG | -0.0584
CACAACTA | 0.202
ATGGTTGA | 0.0658
ACGGCCAC | 0.00593
CGCGTGGC | -0.109
AATTCAGG | 0.0738
CTCACAAA | 0.102
CAGTGTAC | -0.0854
TAACAATA | 0.203

Sequence | PBM E-score
CGGTTGCC | -0.0342
CGGAATAG | 0.0728
TATCTTCA | 0.0579
GAGAGAAC | -0.0626
ACTGGAAT | 0.0324
CGCAGGGC | 0.00825
AATGTTAG | 0.022
GCTCCTGA | -0.0951
CACAAGCG | -0.00602
TAAGTGTA | 0.0518
GCTGGGAA | -0.201
ATCTCTCA | 0.15
CGTAACGA | 0.174
CGTTCGCA | -0.0183
CCGGGTAG | -0.222
ACTGCGGC | 0.0826
CGCACCCC | -0.188
TTAGCCAA | -0.108
TAACAGAA | 0.203
AGACTACG | -0.266
GAGGCTCA | -0.128
GCATACAC | 0.0161
AAATATAG | 0.297
CATTTTGA | 0.0465
CGACCCCG | -0.235

Sequence | PBM E-score
CGCTTAAA | 0.18
TAAGGATA | 0.0505
ATTATTCA | 0.255
CCTTTATC | -0.201
CTCCCAGC | -0.338
AAGTACGA | 0.113
GGGACGGA | -0.29
CAGGCATA | -0.09
GATAGCAC | -0.109
CGGAACAG | -0.135
GAAGCCGC | 0.135
TCCCACCA | -0.269
GACTGCTC | -0.26
ATGTATCA | 0.208
GAGTAATC | -0.0133
AAAATGTT | 0.194
GTAAATCA | 0.178
GCTGGACC | -0.322
AGAATCAG | 0.125
AGTGCTCC | -0.159
AACCGATT | -0.0861
CGAACCAC | -0.0519
ATTTAGCG | 0.0652
ACCACAAC | 0.096
ACTGCATA | 0.0775

Sequence | PBM E-score
CCGCCCAG | -0.187
GACTGCTA | -0.318
CTGGGCTC | -0.289
ACTTAACT | 0.0697
CAATGGAC | 0.105
CTCGGGCC | -0.187
CCCAGACC | -0.193
CGAGTCCA | -0.267
GAGCGAAA | 0.146
GACCGTGC | -0.213
GTGAGCGA | -0.0292
AGGCTGAA | -0.117
CCGTCTCC | -0.158
CAGGAGCG | -0.0364
AAGGGTGA | 0.165
ACTCGTAT | 0.00989
AGAGACCC | -0.11
CACACTAA | 0.215
CCGGTCAG | -0.31
ATCCGGTC | -0.231
GTCCATAA | -0.114
AATATCCT | 0.0626
ACTGCAAC | -0.0166
GCCTAGCA | -0.239
CATCTAAA | 0.194

Sequence | PBM E-score
AAATGCCT | 0.124
GACATGTA | 0.132
GGGGCAAA | -0.152
GCCGAAGA | 0.117
TGCCTAAA | 0.0602
CAACGCTG | 0.037
AGCGTTTA | -0.156
ACGTCTTA | 0.157
AGAATCTG | 0.00858
GCTAAAAA | 0.129
CACGCATA | -0.215
CAGAGTAC | -0.13
CGCTGCCG | -0.0508
GACGGGCC | -0.191
TAACTAAA | 0.154
CCGCGGCC | 0.0391
ATTAGGTA | 0.261
GCGCCGCA | 0.38
GCGCATAA | 0.0295
ATCTTACC | 0.065
GCATAGGA | -0.0572
ATCTCCCA | 0.0539
ACTAGGTG | -0.313
GAAGTGAA | 0.116
GTCCGCTA | -0.136

Sequence | PBM E-score
AGCGCCCA | -0.259
CCCGTACG | -0.134
ACGACTGG | -0.226
CCTGCCTC | -0.258
CCTTCAAC | 0.0452
CGGGGCAA | -0.162
ACACGAAC | 0.0477
CGTTTCAC | 0.128
CACTAACA | 0.184
ATCGTCAT | 0.448
AGTGAGCC | -0.0726
GATCAAAC | 0.099
AGTTGACG | 0.324
GAAGCCTA | 0.00335
TCAGCCCA | -0.118
CATCACTC | 0.241
GCTTGGCC | -0.162
CTAGAATC | -0.12
CTGTCACC | 0.0496
CTTTAAAG | 0.0359
CATGTCAG | 0.144
AATAGTCC | -0.196
GAACCCCC | -0.439
GGGAGGAC | -0.195
CGGACACA | -0.0824

Sequence | PBM E-score
ACCGAAGT | -0.0391
ATGCCTCC | -0.0323
CCCTCAGA | -0.228
CACGGACG | 0.124
CGCTTGCC | -0.0149
TTAGAGAA | 0.0169
AGTAAACC | -0.161
CGACGTCA | 0.491
CAATTAAA | 0.119
AATTTCCT | 0.0537
AGACTATA | 0.0176
CAGGATCC | -0.075
GATTCCCA | -0.117
AAGCGTTC | -0.203
AGCATCCT | -0.17
AGACATCT | -0.173
GGTGTAGA | -0.236
AGCACCGG | -0.268
AATAAAAT | 0.246
ATCTCCAC | -0.0115
GCCTGGCA | -0.332
ATGCAATA | 0.106
GCAACAAC | 0.0303
CGAAATAA | 0.26
TCACTTCA | 0.12

Sequence | PBM E-score
AAAGCTTA | 0.167
ACAACCAA | -0.0137
GAGCATAC | -0.094
CGAATTCC | 0.0181
AGTCCCAC | -0.353
GGCGGTAC | -0.118
GATGCGCA | 0.162
ATGTGTGG | 0.041
TCAGCGCA | -0.176
ACATATTA | 0.312
CTGGTAAG | 0.161
AGGTTTGA | -0.128
AAGAGGAA | 0.0991
ACTCGTTA | -0.0899
AGACAACA | 0.0611
TCTCTCAA | 0.168
GGAGCGTA | -0.106
ACAAATAT | 0.237
AAACTAAC | 0.236
ATTAGTCC | 0.0565
AAGACACC | -0.0482
GTCCAGGA | -0.124
GCATTTCC | 0.00255
TTCACCAA | 0.124
AGTATCAC | 0.102

Sequence | PBM E-score
GATCTTCC | -0.181
AATCACGG | 0.168
GACGATAA | 0.153
CCGACTAG | -0.237
AAATTTAT | 0.234
CTTAATGA | 0.0738
AGCGGCAT | 0.273
CCCGTCAC | 0.2
ATCGATGC | 0.175
AGAAGCCA | 0.128
ATGAGGAG | -0.0136
GGATTGAC | 0.0732
CCGCGAAA | 0.0642
AGCCGTGC | 0.24
ACTTAATA | 0.229
CAAAGCTA | 0.0247
ACGCCAAA | -0.0919
AGAATCGC | -0.00517
CACTATGC | 0.0311
GTCGTACA | -0.13
ATGCGGAA | -0.00494
CCACACGG | 0.111
AACACTAC | 0.151
CGGCACAG | 0.0861
GAGATTTA | -0.0359

Sequence | PBM E-score
ACATGTAG | 0.208
GCCTGGAA | -0.08
ATATAGCA | -0.00398
ACACGCGG | 0.126
GCTACACC | -0.161
CAAACCAA | -0.0209
AAGTATCA | 0.219
ATCGTTGG | -0.0911
AAGATTAC | 0.127
ACCTGAGG | -0.209
GCGATAGA | 0.0899
GATCGGAC | -0.0973
ATATGCAC | 0.0769
AGGTGGTC | -0.166
GTTACCCA | -0.135
CCGCAGAG | -0.358
AACACGAG | -0.0109
ACTGATAT | 0.109
AGCTAACC | -0.222
ACACAAAT | 0.243
AAGCATGG | -0.048
ATGATGCA | 0.362
ATTGCATA | 0.2
CGATAACA | -0.00112
CAACACTG | 0.0167

Sequence | PBM E-score
CGCTACCC | -0.357
AAACTGCC | 0.0631
CGTTCAGA | -0.118
AGTACAAA | 0.139
CGGCGATA | 0.21
AGGTCGAA | 0.0685
GGGTGGCA | -0.213
GGTCCCAC | -0.243
AGACGCGC | -0.118
CGACCCGA | -0.354
AAGAATGT | 0.131
CCAGGCGG | -0.229
CGAGCTCA | -0.0803
CAGGTAAG | -0.148
AGGCGGTA | -0.225
GTAAGCGA | 0.12
CCATAAAC | -0.115
TCCGAGAA | 0.108
GAATGACA | 0.259
AATAGCGT | 0.0923
CATACACG | 0.188
CTGCAGGA | -0.00456
TTGATAAA | 0.269
ATAACGGG | -0.104
ATGAATCA | 0.117

Sequence | PBM E-score
GACAAGTC | -0.202
CCGTATCA | 0.198
GCTAATAC | 0.0161
CTCTTCCA | -0.127
ACATTATA | 0.201
CACGGGGA | -0.171
ATTACAAG | 0.224
GTGGCCTA | -0.165
CCCTTTCA | -0.0909
ATTAAGGC | -0.0196
CACTTTAC | 0.103
CTAATCAA | 0.205
CGTCTAAC | 0.013
AGGACGCC | -0.147
CAGCGAAA | 0.0185
ATGGGGTG | 0.00696
GGTTACGA | -0.0441
TCTGGTAA | 0.126
CGATAGTC | 0.0939
CGTGGCAA | -0.06
TCATTTAA | 0.282
GTACCGAC | -0.0475
AGAACTCT | -0.0631
AGGCACCG | 0.00483
GAGAGGCA | 0.0296

Sequence | PBM E-score
CCACACCA | 0.0287
GTCGCCAC | -0.19
AAGTAAAC | 0.0452
ATGGATAC | -0.0649
AAACAAAG | 0.148
AATCGCAA | 0.122
CCTTCGTA | 0.0135
CTTTCGGC | -0.0943
CACATCTG | -0.134
AGTACGGG | -0.185
TAAGCTAA | 0.182
ATACCGGC | 0.0155
CTGTTTAA | 0.0885
GAGTGACC | -0.205
GGCAATTA | 0.14
AAGGGCAG | -0.215
ACAGTAAA | 0.131
GGATTGGA | -0.0686
CGACTTAC | -0.279
ATGGTTAC | 0.25
CGCCACCA | -0.0362
GCGTAACC | 0.14
CATATAGC | 0.105
TATAACGA | 0.167
ATCGGCTA | -0.138

Sequence | PBM E-score
CCCACCTA | -0.038
ACGAGTGC | 0.0193
ACTAAACC | -0.0376
CCGTTGAA | -0.0898
CAGAATCC | -0.0985
CGTCACAC | 0.414
CCCTCCAC | -0.164
CAGCAGGG | -0.276
GATATCCA | 0.129
ATCAAAAA | 0.208
CGTGACTC | -0.1
ATAAGACG | 0.0243
ACCGCGCG | 0.231
TATCCTGA | 0.082
ATTACCAG | 0.0801
ACATCTCA | 0.0795
TTCTAGAA | 0.181
ACAACTGG | -0.19
ACGGGTCC | -0.278
